Experimental data as given in the RNAGym collection of RNA variant scans (doi:10.7554/elife.90254).
The source gives no read counts; variants with many changes may rest on few reads.

B1: LINE1-mini (parent)
chain: GGCAGAGCUCAACACAGCGUGGCAAAGUGGCUGUGGCUAGACUGCC

Variants of: B1
Assay: self-cleavage, relative activity (ratio to wild type); higher = more cleavage; in vitro, sequencing; the parent is a self-cleaving ribozyme
In the case of A16G G17A C18G G27A G35U, the self-cleavage is reported as 0.
A16G G17A G30C C37G gave a self-cleavage of 0.04.
A16G G17C A41G gave a self-cleavage of 0.04.
Variant A16G G17C C37U U38G C45U has a self-cleavage of 0.
Work on A16G G17C G19C G22C C42A yielded a self-cleavage of 0.02.
A16G G17C G27A G30C C42G showed a self-cleavage of 0.05.
In the case of A16G G17C G27C G29C, the self-cleavage is reported as 0.07.
For A16G G17C G36U, the self-cleavage was 0.01.
A16G G17U C23G G36A A39U showed a self-cleavage of 0.09.
For A16G G17U G21U A24C, the self-cleavage was 0.2.
With A16G G17U G44U the self-cleavage was 0.07.
In the case of A16G G17U U20G G22A A24G U34C U43G C46U, the self-cleavage is reported as 0.08.
A16G G19A C31U G33C C37A A39U gave a self-cleavage of 0.02.
Variant A16G G19A G40A C45A has a self-cleavage of 0.03.
For A16G G19A U20C, the self-cleavage was 0.07.
A16G G19C A41U showed a self-cleavage of 0.3.
Variant A16G G19C G29A C37G A39C has a self-cleavage of 0.04.
Work on A16G G19C U20A C31U U43C yielded a self-cleavage of 0.01.
Work on A16G G19C U38C yielded a self-cleavage of 0.03.
For A16G G19U C23G G27U, the self-cleavage was 0.09.
For A16G G19U G21U G35U, the self-cleavage was 0.01.
A16G G19U G27A C31U gave a self-cleavage of 0.16.
Variant A16G G19U G40A has a self-cleavage of 0.05.
Variant A16G G19U U43G has a self-cleavage of 0.21.
With A16G G21A A25C C45U C46A the self-cleavage was 0.02.
A16G G21A C46U gave a self-cleavage of 0.43.
With A16G G21A G22U U28C the self-cleavage was 0.11.
In the case of A16G G21A G29U G44A, the self-cleavage is reported as 0.26.
Variant A16G G21A G36U U38G has a self-cleavage of 0.02.
Work on A16G G21C A26U yielded a self-cleavage of 1.2.
In the case of A16G G21C C31G G33C, the self-cleavage is reported as 0.02.
For A16G G21C G22C, the self-cleavage was 0.53.
A16G G21C U34A gave a self-cleavage of 0.01.
Variant A16G G21U A24U A25U C42A has a self-cleavage of 0.02.
Variant A16G G21U G36U has a self-cleavage of 0.03.
Work on A16G G21U G40U yielded a self-cleavage of 0.09.
With A16G G22A G36C the self-cleavage was 0.
With A16G G22A U28A C42U the self-cleavage was 0.02.
With A16G G22A U32C A39U C46U the self-cleavage was 0.24.
In the case of A16G G27C C31G, the self-cleavage is reported as 0.01.
For A16G G27C C37G C46G, the self-cleavage was 0.02.
For A16G G27C G29U G36A, the self-cleavage was 0.1.
Variant A16G G27C G40A has a self-cleavage of 0.02.
Variant A16G G27C U38A has a self-cleavage of 0.04.
Work on A16G G27U G36U yielded a self-cleavage of 0.11.
Work on A16G G27U U32G yielded a self-cleavage of 0.02.
For A16G G29A G44C, the self-cleavage was 0.11.
For A16G G29A U38G C46G, the self-cleavage was 0.02.
A16G G29U A41C gave a self-cleavage of 0.05.
A16G G29U U43C showed a self-cleavage of 0.
A16G G30A A39U gave a self-cleavage of 0.28.
Work on A16G G30A C45A yielded a self-cleavage of 0.3.
A16G G30C C42G gave a self-cleavage of 0.02.
A16G G35C A41U gave a self-cleavage of 0.01.
For A16G G35U C45A, the self-cleavage was 0.04.
Variant A16G G36A A39G C42U has a self-cleavage of 0.02.
For A16G G36C A39U C46G, the self-cleavage was 0.01.
A16G G36U C37A C45U gave a self-cleavage of 0.04.
Work on A16G G40A C45A yielded a self-cleavage of 0.21.
A16G G44C C46G gave a self-cleavage of 0.05.
Work on A16G U20A G27A G35U yielded a self-cleavage of 0.02.
With A16G U20A G40U the self-cleavage was 0.04.
With A16G U20C C37A the self-cleavage was 0.02.
Work on A16G U20C C42A yielded a self-cleavage of 0.04.
In the case of A16G U20G G30A C31A, the self-cleavage is reported as 0.04.
Variant A16G U20G U28C G36U has a self-cleavage of 0.
In the case of A16G U28C A39G, the self-cleavage is reported as 0.03.
A16G U28G A41G showed a self-cleavage of 0.25.
In the case of A16G U28G G40U, the self-cleavage is reported as 0.02.
A16G U28G U34C C37U U43A showed a self-cleavage of 0.02.
For A16G U32A A39U, the self-cleavage was 0.01.
Variant A16G U32A A41U has a self-cleavage of 0.03.
With A16G U34A C37U G44C C46U the self-cleavage was 0.
In the case of A16G U34C G40U C42G G44A, the self-cleavage is reported as 0.01.
Work on A16G U34G G36U A39G G44A yielded a self-cleavage of 0.03.
A16G U38A C45G gave a self-cleavage of 0.03.
Work on A16U A24G C31A yielded a self-cleavage of 0.
Variant A16U A24G G33U A39U G40C has a self-cleavage of 0.05.
A16U A24U A39G showed a self-cleavage of 0.04.
A16U A25C C46U gave a self-cleavage of 0.03.
Variant A16U A25C G29A has a self-cleavage of 0.01.
Work on A16U A25C G30A A41U yielded a self-cleavage of 0.04.
In the case of A16U A25U A41G, the self-cleavage is reported as 0.04.
In the case of A16U A25U C31U, the self-cleavage is reported as 0.01.
A16U A25U C42U showed a self-cleavage of 0.05.
A16U A39C G40C C45A showed a self-cleavage of 0.
In the case of A16U A41G C42A, the self-cleavage is reported as 0.03.
For A16U A41U U43A, the self-cleavage was 0.14.
Work on A16U C18A C23G A24U yielded a self-cleavage of 0.02.
Variant A16U C18A C31A C46U has a self-cleavage of 0.01.
In the case of A16U C18A C37A C42G, the self-cleavage is reported as 0.02.
Variant A16U C18A G19A U20C G22A C23A G30C G33U has a self-cleavage of 0.03.
With A16U C18A G19U U20A U28A the self-cleavage was 0.09.
Work on A16U C18A G22A yielded a self-cleavage of 0.03.
Variant A16U C18A G27C U43C has a self-cleavage of 0.15.
In the case of A16U C18A G40A, the self-cleavage is reported as 0.01.
Work on A16U C18A U20C G27U C37A C42A C46U yielded a self-cleavage of 0.02.
In the case of A16U C18G U20C A25G C45A, the self-cleavage is reported as 0.
Work on A16U C18G U20C U32G G33U A39C yielded a self-cleavage of 0.01.
With A16U C18U A25G U28G U34G the self-cleavage was 0.03.
A16U C18U G19C showed a self-cleavage of 1.17.
For A16U C18U G30U A39G, the self-cleavage was 0.01.
A16U C18U G36C C37A gave a self-cleavage of 0.02.
In the case of A16U C23A A24U A25U U38C, the self-cleavage is reported as 0.11.
A16U C23A A25U showed a self-cleavage of 0.1.
A16U C23A C37U U38G C42U showed a self-cleavage of 0.01.
In the case of A16U C23A C45G, the self-cleavage is reported as 0.01.
A16U C23A G29U showed a self-cleavage of 0.42.
In the case of A16U C23A G29U U43A, the self-cleavage is reported as 0.16.
For A16U C23G A24G G27C G29C, the self-cleavage was 0.88.
Work on A16U C23G G40A yielded a self-cleavage of 0.02.
In the case of A16U C23U C37A, the self-cleavage is reported as 0.08.
In the case of A16U C23U G27U G44A, the self-cleavage is reported as 0.13.
In the case of A16U C23U G29A G35U U38G, the self-cleavage is reported as 0.02.
A16U C23U G29U showed a self-cleavage of 0.23.
With A16U C23U G30U G36A the self-cleavage was 0.05.
Work on A16U C23U G33C yielded a self-cleavage of 0.02.
With A16U C31A C37U the self-cleavage was 0.02.
A16U C31A G33A G40U gave a self-cleavage of 0.01.
With A16U C31A G36U the self-cleavage was 0.04.
With A16U C31G C42G the self-cleavage was 0.05.
A16U C31U U38C gave a self-cleavage of 0.
A16U C37G C45G gave a self-cleavage of 0.11.
Work on A16U C37U G40C C45U yielded a self-cleavage of 0.01.
For A16U G17A A24C U28C C42U, the self-cleavage was 0.05.
A16U G17A C23U showed a self-cleavage of 0.03.
With A16U G17A C37A the self-cleavage was 0.02.
Work on A16U G17A C37A C42A yielded a self-cleavage of 0.06.
Work on A16U G17A G19U G27U U38C yielded a self-cleavage of 0.16.
With A16U G17A G30A the self-cleavage was 0.07.
Variant A16U G17C G22C has a self-cleavage of 0.16.
Work on A16U G17U C37U yielded a self-cleavage of 0.07.
A16U G17U G35C A41C gave a self-cleavage of 0.04.
For A16U G17U G44U, the self-cleavage was 0.01.
A16U G19A G27A C46U showed a self-cleavage of 0.6.
In the case of A16U G19C A26C, the self-cleavage is reported as 0.23.
In the case of A16U G19C A41U, the self-cleavage is reported as 0.06.
For A16U G19C G22U A39U A41U, the self-cleavage was 0.14.
A16U G19U G29A C42U gave a self-cleavage of 0.02.
A16U G19U U20C G30C A41G gave a self-cleavage of 0.1.
In the case of A16U G19U U34G, the self-cleavage is reported as 0.03.
A16U G21A A24C U28C G36C gave a self-cleavage of 0.05.
Work on A16U G21A A24G G33U yielded a self-cleavage of 0.
Variant A16U G21A A24U U32C G35C C37A has a self-cleavage of 0.01.
In the case of A16U G21A A25U C46A, the self-cleavage is reported as 0.25.
Variant A16U G21A A39G has a self-cleavage of 0.
In the case of A16U G21C C23A A25C, the self-cleavage is reported as 0.03.
Variant A16U G21C C31U G40C has a self-cleavage of 0.05.
In the case of A16U G21C C31U U34G G35C G40U U43C, the self-cleavage is reported as 0.01.
In the case of A16U G21C U32C U34C, the self-cleavage is reported as 0.01.
For A16U G21C U34A G35U, the self-cleavage was 0.02.
Work on A16U G21U A25C G27U yielded a self-cleavage of 0.44.
In the case of A16U G21U A39C A41C, the self-cleavage is reported as 0.01.
In the case of A16U G21U C23G U28A C45U, the self-cleavage is reported as 0.53.
Variant A16U G21U C31U has a self-cleavage of 0.02.
A16U G21U G30C showed a self-cleavage of 0.72.
Work on A16U G21U U38A yielded a self-cleavage of 0.18.
A16U G22A A25U G27A A39C A41G gave a self-cleavage of 0.27.
Work on A16U G22A C45G yielded a self-cleavage of 0.06.
A16U G22A G30C gave a self-cleavage of 0.02.
In the case of A16U G22C G30C G35U, the self-cleavage is reported as 0.01.
A16U G22C G35A showed a self-cleavage of 0.06.
For A16U G22U C45U, the self-cleavage was 0.12.
For A16U G27A C42A, the self-cleavage was 0.08.
Variant A16U G27A G29A has a self-cleavage of 0.68.
In the case of A16U G27A G30U, the self-cleavage is reported as 0.11.
Work on A16U G27A U28C G33C yielded a self-cleavage of 0.08.
